In all, about 52,000 compounds went through this assay and about 1,700 (3.3%) were called active. Cut-off read from the data, not from the text of the source: active = survival mostly below about 52% (no sharp cut-off); inactive = mostly above about 56%. Some of the results follow.
Each compound was assayed on Wild type (assay: growth inhibition of S. aureus wild type versus tarO mutant, primary screen, teichoic acid synthesis inhibitors, RN4220, OD600 (AID 463173)). Details: S. aureus RN4220 wild type/DeltatarO growth, OD600, 18 h, active compounds read low, screened at 18.75 µg/mL (by protocol).

Compound	survival
CC(CCc1ccccc1)NC(=O)Cn1ncc2c3ccccc3n(Cc3cccc(Cl)c3)c2c1=O (stereo not given)	inactive: 87%
COc1ccc(CN(C(=O)c2ccc(OCC(C)C)cc2)C2CCS(=O)(=O)C2)cc1 (stereo not given)	inactive: 105%
O=C(Nc1ccccc1C(F)(F)F)N1Cc2ccccc2Oc2ncccc21	inactive: 45%
COc1cccc(C2C=C(c3ccc(C)cc3)Nc3c(C(=O)Nc4ccc(F)cc4)cnn32)c1OC (stereo not given)	active: -3%
CCOc1ccc(NC(=O)CSc2oc(-c3ccco3)nc2S(=O)(=O)c2ccc(Cl)cc2)cc1	inactive: 136%
CCOC(=O)c1cc(-c2ccc(OC)cc2)n(CCC(=O)NC2CCC(C)CC2)c1C (stereo not given)	inactive: 73%
COc1ccc(NC(=O)CSc2nc(-c3ccccc3)c3ccccc3n2)cc1	inactive: 97%
CCOc1ccc(-c2n[nH]c3c2C(c2cccs2)N(c2ccc(Br)cc2)C3=O)cc1 (stereo not given)	inactive: 83%
CC(C)C(c1nnnn1Cc1ccccc1)N1CCCc2ccccc21 (stereo not given)	inactive: 122%
CCc1cccc(-n2nnc(-c3nc(-c4ccc5c(c4)OCO5)no3)c2C)c1	inactive: 82%
Cc1cccc(C(=O)NCc2nnc(SCC(=O)Nc3ccccc3F)n2-c2ccccc2)c1	inactive: 69%
COc1ccc(N2CCN(C(=O)Nc3ccc(Cl)cc3)CC2)cc1	inactive: 140%
CC(=O)N1c2ccc(S(=O)(=O)NCC3CCC(C(=O)Nc4cccc(F)c4)CC3)cc2CC1C (stereo not given)	inactive: 104%
COc1ccc(S(=O)(=O)N2CCN(C(=O)c3cc(-c4ccc(Br)cc4)n[nH]3)CC2)cc1OC	inactive: 89%
CCN(CC)C(=O)c1ccc2nc(N)sc2c1	inactive: 112%
CCN(CC)c1nc(Nc2ccc(OC)cc2)nc(Nc2ccc(OC)cc2)n1	inactive: 101%
O=C(NC12CC3CC(CC(C3)C1)C2)c1ccco1	inactive: 111%
CCOc1ccc(NCc2cccn2-c2nnc(N3CCC(C(=O)NCCc4ccc(OCC)c(OCC)c4)CC3)s2)cc1	inactive: 71%
CC1CN(C(=O)Nc2ccc(C(=O)NCCc3ccc(Cl)cc3)cc2)c2ccccc2S1 (stereo not given)	inactive: 84%
CCC(NC(=O)c1ccccc1)c1ccccc1 (stereo not given)	inactive: 104%
COCCn1c(C)cc(O)c(C(c2ccc(OC)cc2)N2CCCCC2)c1=O (stereo not given)	inactive: 77%
N=c1n(CCN2CCCCC2)c2ccccc2n1CC(O)c1ccc2c(c1)OCO2 (stereo not given)	inactive: 111%
Cc1ccccc1NC(=O)CSCn1nnc2c(=O)[nH]c(Cc3ccc(F)cc3)nc21	inactive: 82%

Compound	survival
Cc1cccc(NC(=O)C(=O)NCC(c2cccnc2)N2CCN(Cc3ccccc3)CC2)c1 (stereo not given)	inactive: 89%
Cn1c(C(=O)NCCc2ccccc2)cc2cc(S(=O)(=O)N3CCCCC3)ccc21	inactive: 73%
CCCC(=O)Nc1ccc2nc(SCCOc3ccccc3)sc2c1	inactive: 92%
CCCN1Cc2cccc(C(=O)Nc3ccccc3F)c2C1=O	inactive: 83%
COc1ccc(Cl)cc1NC(=O)c1c(NCc2cccnc2)sc2c1CCCC2	inactive: 127%
CC(C)(C)OC(=O)N1CCC(c2c(C(=O)NCCc3ccsc3)cnn2-c2ccc(F)cc2F)CC1	inactive: 55%
CCOC(=O)c1c(Nc2ccc(OCC)cc2)nnc(-c2ccccc2)c1-c1ccccc1	active: 2%
COc1ccccc1C(=O)Nc1nnc(S(=O)(=O)N2CCCCC2)s1	inactive: 74%
CC(C)c1cnc2c(c1SCC(=O)c1ccc(Cl)cc1)c(=O)n(C)c(=O)n2C	inactive: 138%
COc1ccccc1NC(=O)CSc1ncc(CO)n1Cc1ccc(F)cc1	inactive: 121%
O=C(Cc1ccccc1)NN1C(=O)c2ccccc2C1=O	inactive: 113%
COc1ccc2ncc3c(-c4ccccc4)nn(-c4ccc(C)c(C)c4)c3c2c1	active: 0%
O=C(NCN1CCCCC1)Nc1cccc(Cl)c1	inactive: 103%
COc1ccc(CN(Cc2cc3cccc(C)c3n3nnnc23)C(=O)N2CCOCC2)cc1	inactive: 96%
Cc1cc(-c2ccccc2)nc2cc(C(=O)Nc3ccc(Cl)c(Cl)c3)nn12	inactive: 70%
Cc1cccc(N2CCN(C(=O)C3CCN(S(=O)(=O)Cc4ccccc4)CC3)CC2)c1C	inactive: 74%
CC1CCN(C(=O)CSc2nc3ccccc3c(=O)[nH]2)CC1	inactive: 103%
Cc1ccccc1NC(=O)Cn1c(=O)n(Cc2ccco2)c(=O)c2ccc(C(=O)NC3CCCC3)cc21	inactive: 71%
COc1ccccc1N1CCN(C(=O)C2CCN(S(=O)(=O)c3cccs3)CC2)CC1	inactive: 93%
COc1ccccc1C(=O)NC1(C(F)(F)F)C(=O)NC(C)=C1C#N (stereo not given)	inactive: 90%
CCOC(=O)c1cnc2cc(Cl)c(OC)cc2c1Nc1ccc(Br)cc1C	inactive: 87%
C#CCOc1c(Br)cc(C2C(C(=O)OC)=C(C)NC3=C2C(=O)c2ccccc23)cc1OCC (stereo not given)	inactive: 76%
COc1cc(OC)c(NC(=O)c2nn(C)c3c2COc2ccccc2-3)cc1Cl	inactive: 111%

Compound	survival
Cc1ccccc1NC(=O)Cn1nnc(C(=O)NCc2ccco2)c1N	inactive: 87%
O=C(Nc1ccccc1)c1cc2c(-c3ccccc3)nn(-c3ccccc3)c2s1	inactive: 60%
C=CCn1c(COc2ccc(OC)cc2)n[nH]c1=S	inactive: 98%
Cc1ccc(C)c(Cn2c(=O)n(CCc3ccccc3)c(=O)c3c(C)c(C)sc32)c1	inactive: 93%
COc1ccc(Cn2nc3n(c2=O)-c2ccccc2OC3)cc1	inactive: 64%
Cc1cccc(C(=O)Nc2nnc(S(=O)(=O)N3CCOCC3)s2)c1	inactive: 68%
CSc1ccc(CCNS(=O)(=O)c2cc(-c3cc(C)no3)ccc2C)cc1	inactive: 92%
O=C(CSc1c2c(nc3ccc(Cl)cc13)CCCC2)N1CCN(c2ccc(Cl)cc2)CC1	inactive: 53%
CCOc1ccc(OC(=O)c2sc3ncn(Cc4cccc(F)c4)c(=O)c3c2C)cc1	inactive: 55%
CCCCNC(=O)C1(NC(=O)Nc2ccccc2)CCCCC1	inactive: 107%
COc1ccc(OC)c(NC(=O)C(Cc2ccccc2)NS(=O)(=O)c2ccc3c(c2)CCC(=O)N3)c1 (stereo not given)	inactive: 88%
CCn1cc2nc(SCc3c(F)cccc3Cl)n(CCc3ccccc3)c(=O)c2n1	inactive: 64%
O=C(COCc1cc(-c2ccc3c(c2)OCO3)on1)Nc1cccc(O)c1	inactive: 124%
O=C(Nc1ccc2nc[nH]c2c1)C1CCCCC1	inactive: 87%
CCN(CC)S(=O)(=O)c1ccc2c(c1)N(CC(=O)Nc1cccc(C(C)=O)c1)C(=O)CO2	inactive: 73%
O=C(Nc1ccc(Br)cc1)Nc1nc2c(s1)CCCCCC2	inactive: 82%
Cc1cccc(C(=O)n2nc(-c3ccco3)nc2NCc2ccccc2)c1	inactive: 85%
COc1ccc(Cl)cc1S(=O)(=O)Nc1ccc2c(c1)n(C)c(=O)n2C	inactive: 63%
COc1ccc(NC(=O)C(=O)Nc2ccc3nc4n(c(=O)c3c2)CCCCC4)c(OC)c1	inactive: 81%
CCC(=O)N1c2ccccc2CC1C(=O)NCCCN1CCN(c2ccc(F)cc2)CC1 (stereo not given)	inactive: 146%
Cc1ccc(-n2ncc3c(NCCc4ccccc4)ncnc32)cc1Cl	inactive: 65%
COc1ccc(CCNC(=O)c2cc(-c3ccc(C)cc3)nc3n[nH]c(-c4ccc(F)cc4)c23)cc1OC	inactive: 136%
O=C(COCc1cc(-c2ccc(F)cc2)on1)Nc1cc(Cl)cc(Cl)c1	inactive: 148%

Compound	survival
O=C(CCSCCc1ccccn1)Nc1ccccc1C(F)(F)F	inactive: 89%
CC(=O)Nc1ccc(C(=O)N2CCOCC2)cc1	inactive: 126%
CCc1ccccc1NC(=O)Cn1cc(C(=O)c2ccncc2)c(=O)c2cc(C)ccc21	inactive: 75%
O=C(CCSCc1cccc(F)c1)NCCc1ccccc1	inactive: 136%
Cc1ccc(N2CC(C(=O)NCCS(=O)(=O)N3CCN(c4ccc(F)cc4)CC3)CC2=O)cc1 (stereo not given)	inactive: 72%
O=C1NN(c2ccccc2)C(=O)/C1=C\c1ccccc1	inactive: 105%
O=C(NCc1ccccc1)C1CCCN1S(=O)(=O)c1ccc(Cl)cc1 (stereo not given)	inactive: 99%
CC1=C(C(=O)Nc2cccc(F)c2)C2(CCCCCC2)OC1=O	inactive: 82%
COCCCNc1oc(-c2ccc(COc3ccccc3C)o2)nc1C#N	inactive: 66%
COc1cc(OC)c(NC(=O)Cn2c(=O)nc(-c3ccccc3)c3ccccc32)cc1Cl	inactive: 68%
Cc1nnc(N(Cc2ccco2)C(=O)c2cccc(C#N)c2)s1	inactive: 108%
Cc1c(Cl)cccc1-c1ccc(C(=O)Nc2ccc3oc(-c4cccnc4)nc3c2)o1	inactive: 79%
COc1cccc(OCCn2c(-c3ccc(Cl)cc3)nc3ccccc3c2=O)c1	inactive: 63%
COc1cccc(Cn2c(=O)n(-c3cc(C)cc(C)c3)c(=O)c3oc4ccccc4c32)c1	inactive: 84%
CCOc1cc(CNC(=O)c2cc(-c3ccc(Cl)s3)nc3ccccc23)ccc1OC	inactive: 93%
CCCC(=O)C1=C(N(C)c2ccccc2)CC(C)(C)CC1=O	inactive: 115%
COc1ccc(CCNC(=O)Cn2c(=O)cc(C(F)(F)F)c3c(C)nn(C)c32)c(OC)c1	inactive: 99%
CCc1ccc(C2=CC(c3cccc(OC)c3OC)n3c(nc4ccccc43)N2)cc1 (stereo not given)	inactive: 55%
C=CCOc1cccc(CNn2nnnc2N)c1	inactive: 102%
CCc1ccc(NC(=O)C2CCN(c3ccc(Sc4ccc(C)cc4)nn3)CC2)cc1	inactive: 68%
Cc1ccc(N2CCN(S(=O)(=O)c3nnc(NC(=O)c4cccc(F)c4)s3)CC2)cc1	inactive: 65%

From PubChem BioAssay AID463173 (ICCB-Longwood Screening Facility, Harvard Medical School, 2010)
